Laboratory results as given in the supplement of paper PMC10369915.
The list shows a part of the results. Rule as the data show it: active = 3.2 or more and inactive = the rest. Only a few entries rise above the background.

Assays:
Assay in all cases: enrichment score (SH2-bound / input frequency) (ratio); bacterial display of known human phosphotyrosine sites (pTyr-Var adds point mutants) read by sequencing; higher = stronger binding; tyrosines were phosphorylated by kinases first
Settings in all cases: peptide library: pTyr-Var
[1] = target: SHP2 C-SH2 domain E139D
[2] = target: SHP2 C-SH2 domain wild-type
[3] = target: SHP2 N-SH2 domain L43F
[4] = target: SHP2 N-SH2 domain T42A
[5] = target: SHP2 N-SH2 domain T52S
[6] = target: SHP2 N-SH2 domain wild-type
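Also: displayed peptides selected on beads carrying the immobilized SH2 domain, with library peptides lacking any tyrosine serving as negative controls.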

Row | Binder | enrichment score [1] | enrichment score [2] | enrichment score [3] | enrichment score [4] | enrichment score [5] | enrichment score [6]
1 | SDQRRYSLIDP [CLIP2_Y972_R977P] | inactive: 0.822 | inactive: 1.54 | inactive: 0.845 | inactive: 1.27 | inactive: 0.752 | inactive: 0.862
2 | MCDSHYLESRS [CLK1_Y56] | inactive: 0.742 | inactive: 0.745 | inactive: 0.91 | inactive: 0.648 | inactive: 0.617 | inactive: 0.69
3 | HTVVSYAKVRA [CLOCK_Y378_E380K] | inactive: 1.72 | active: 3.38 | inactive: 1.77 | active: 3.62 | inactive: 1.4 | inactive: 1.14
4 | EKNANYKEGTF [CLRN1_Y171_I168N_YF] | inactive: 0.564 | inactive: 0.513 | inactive: 0.578 | inactive: 0.484 | inactive: 0.559 | inactive: 0.604
5 | DAVKHYMQFQK [CNGA2_Y395_R399Q] | inactive: 0.881 | inactive: 0.662 | inactive: 0.767 | inactive: 0.844 | inactive: 0.64 | inactive: 0.726
6 | PSSNLYYRWLT [CNGA3_Y168] | inactive: 1.36 | inactive: 0.878 | inactive: 0.947 | inactive: 1.17 | inactive: 1.35 | inactive: 1.07
7 | LSSNLYFRWLT [CNGA3_Y168_P163L_YF] | inactive: 1.84 | inactive: 2.56 | inactive: 1.74 | inactive: 2.07 | inactive: 1.64 | inactive: 2.25
8 | PSSNLYFRCLT [CNGA3_Y168_W171C_YF] | inactive: 0.605 | inactive: 0.579 | inactive: 0.534 | inactive: 0.537 | inactive: 0.426 | inactive: 0.799
9 | PSSNLYFRWLT [CNGA3_Y168_YF] | inactive: 0.751 | inactive: 0.69 | inactive: 0.74 | inactive: 0.873 | inactive: 0.756 | inactive: 0.874
10 | SSNLYYRWLTA [CNGA3_Y169] | inactive: 0.721 | inactive: 0.73 | inactive: 0.514 | inactive: 0.574 | inactive: 0.66 | inactive: 0.53
11 | SSNLFYRWLTA [CNGA3_Y169_YF] | inactive: 0.616 | inactive: 0.73 | inactive: 0.669 | inactive: 0.572 | inactive: 0.801 | inactive: 0.773
12 | MPLTEYLKRIK [CNGB3_Y200] | inactive: 1.03 | inactive: 0.762 | inactive: 0.796 | inactive: 0.619 | inactive: 0.843 | inactive: 0.905
13 | MPLTKYLKRIK [CNGB3_Y200_E199K] | inactive: 0.816 | inactive: 0.669 | inactive: 0.621 | inactive: 0.715 | inactive: 0.705 | inactive: 0.777
14 | DESEDCRDTVV [CNNM3_Y456_Y456C] | inactive: 0.455 | inactive: 0.351 | inactive: 0.422 | inactive: 0.291 | inactive: 0.383 | inactive: 0.36
15 | TFEYRYLEDRD [CNOT3_Y746] | inactive: 0.816 | inactive: 0.911 | inactive: 0.824 | inactive: 0.625 | inactive: 0.796 | inactive: 0.909
16 | TFEYRYLEDQD [CNOT3_Y746_R750Q] | inactive: 0.68 | inactive: 0.597 | inactive: 0.854 | inactive: 0.714 | inactive: 0.559 | inactive: 0.551
17 | TFEFRYLEDRD [CNOT3_Y746_YF] | inactive: 1.11 | inactive: 0.942 | inactive: 1.01 | inactive: 1.2 | inactive: 1.24 | inactive: 1.09
18 | GQLIVYAPPEW [CNTN6_Y315_F314V] | inactive: 0.94 | inactive: 0.906 | inactive: 0.954 | inactive: 2.01 | inactive: 0.751 | inactive: 0.864
19 | GTPVMYTYDEY [COL10A1_Y623] | inactive: 0.805 | inactive: 0.882 | inactive: 1.18 | inactive: 0.843 | inactive: 0.832 | inactive: 0.957

Row | Binder | enrichment score [1] | enrichment score [2] | enrichment score [3] | enrichment score [4] | enrichment score [5] | enrichment score [6]
20 | VTPVMYTYDEY [COL10A1_Y623_G618V] | inactive: 0.979 | inactive: 0.911 | inactive: 2.99 | inactive: 1.15 | inactive: 2.56 | inactive: 0.974
21 | CKSVHYDLVFL [COL22A1_Y37] | inactive: 0.93 | inactive: 1.33 | inactive: 0.988 | inactive: 1.38 | inactive: 0.999 | inactive: 1.26
22 | KGERGYPGTLG [COL4A1_Y348_P352L] | inactive: 0.578 | inactive: 0.517 | inactive: 0.744 | inactive: 0.575 | inactive: 0.556 | inactive: 0.637
23 | SENAFYLSPDI [COL6A3_Y2827] | inactive: 0.751 | inactive: 0.726 | inactive: 0.741 | inactive: 0.683 | inactive: 0.571 | inactive: 0.581
24 | SENAFYLSPHI [COL6A3_Y2827_D2831H] | inactive: 0.926 | inactive: 0.769 | inactive: 0.894 | inactive: 0.681 | inactive: 0.92 | inactive: 0.879
25 | DGSALYTGSAL [COL6A3_Y524] | inactive: 0.704 | inactive: 0.788 | inactive: 0.557 | inactive: 0.498 | inactive: 0.761 | inactive: 0.7
26 | PAIYTYDEYKK [COL8A2_Y648_T645I] | inactive: 0.833 | inactive: 1 | inactive: 0.97 | inactive: 0.815 | inactive: 0.687 | inactive: 0.807
27 | PAIFTYDEFKK [COL8A2_Y648_T645I_YF] | inactive: 0.775 | inactive: 0.817 | inactive: 0.881 | inactive: 0.802 | inactive: 1.05 | inactive: 1.22
28 | AKAEIYEMRPL [COX10_Y97] | inactive: 0.932 | inactive: 0.778 | inactive: 0.985 | inactive: 0.758 | inactive: 0.875 | inactive: 0.955
29 | FSLPAYMDRRD [COX4I1_Y38] | inactive: 0.862 | inactive: 0.688 | inactive: 0.903 | inactive: 0.691 | inactive: 1.08 | inactive: 0.919
30 | DDIPLYLKGGV [COX7A2_Y44_E40D] | inactive: 0.705 | inactive: 0.784 | inactive: 0.662 | inactive: 0.643 | inactive: 0.645 | inactive: 0.735
31 | CLAKMYFSAVD [CP_Y539_YF] | inactive: 1.25 | inactive: 0.965 | inactive: 1.05 | inactive: 1.02 | inactive: 1.23 | inactive: 1.13
32 | KYGTNYRVGSS [CPO_Y278] | inactive: 0.877 | inactive: 0.792 | inactive: 0.844 | inactive: 0.668 | inactive: 0.678 | inactive: 0.89
33 | TARWEYMHSPS [CPOX_Y429] | inactive: 0.625 | inactive: 0.819 | inactive: 0.528 | inactive: 1.13 | inactive: 0.824 | inactive: 0.77
34 | LEVPLYKNGVK [CPS1_Y1069_A1065E] | inactive: 0.813 | inactive: 0.887 | inactive: 0.798 | inactive: 0.824 | inactive: 0.519 | inactive: 0.961
35 | FVHDNYVIRRT [CPS1_Y1450] | inactive: 0.361 | inactive: 0.388 | inactive: 0.399 | inactive: 0.329 | inactive: 0.427 | inactive: 0.548
36 | KSLFHHRQFSA [CPS1_Y1491_Y1491H_YF] | inactive: 0.57 | inactive: 0.567 | inactive: 0.61 | inactive: 0.517 | inactive: 0.676 | inactive: 0.568
37 | KSLFHYRQFSA [CPS1_Y1491_YF] | inactive: 0.63 | inactive: 0.533 | inactive: 0.457 | inactive: 0.437 | inactive: 0.383 | inactive: 0.467
